Results taken from the supplement of paper PMC10886265.

Assays:
Test in all cases: Broth microdilution (CLSI), cation-adjusted Mueller-Hinton broth, two-fold steps from 0.25 to 128 µg/mL, 18 h at 37 °C.
[1] = compound: C[C@@H](O)[C@H]1C(=O)N2C(C(=O)O)=C(SCCNC=N)C[C@H]12 [Imipenem]
[2] = compound: C[C@@H](O)[C@H]1C(=O)N2C(C(=O)O)=C(S[C@@H]3CN[C@H](C(=O)N(C)C)C3)[C@H](C)[C@H]12 [Meropenem]
[3] = compound: C[C@@H](O)[C@H]1C(=O)N2C(C(=O)O)=C(S[C@@H]3CN[C@H](C(=O)Nc4cccc(C(=O)O)c4)C3)[C@H](C)[C@H]12 [Ertapenem]

Row | Test System | MIC [1] [µg/mL] | MIC [2] [µg/mL] | MIC [3] [µg/mL]
1 | Klebsiella oxytoca isolate primary sludge #212 (carbapenemase genes (PCR): KPC) | 32 | 64 | 32
2 | Klebsiella oxytoca isolate primary sludge #216 (carbapenemase genes (PCR): KPC) | 64 | 64 | 32
3 | Klebsiella oxytoca isolate primary sludge #222 (carbapenemase genes (PCR): KPC) | 32 | 32 | 16
4 | Klebsiella oxytoca isolate primary sludge #223 (carbapenemase genes (PCR): KPC) | 64 | 128 | 32
5 | Klebsiella oxytoca isolate primary sludge #225 (carbapenemase genes (PCR): KPC) | 16 | 64 | 32
6 | Klebsiella oxytoca isolate primary sludge #227 (carbapenemase genes (PCR): KPC) | 64 | 64 | 32
7 | Klebsiella oxytoca isolate primary sludge #229 (carbapenemase genes (PCR): KPC) | 32 | 64 | 32
8 | Klebsiella oxytoca isolate secondary sludge #168 (carbapenemase genes (PCR): KPC) | 32 | 64 | 8
9 | Klebsiella oxytoca isolate secondary sludge #169 (carbapenemase genes (PCR): KPC) | 32 | 64 | 8
10 | Klebsiella oxytoca isolate secondary sludge #171 (carbapenemase genes (PCR): KPC) | 32 | 64 | 8
11 | Klebsiella oxytoca isolate secondary sludge #184 (carbapenemase genes (PCR): KPC) | 16 | 32 | 8
12 | Klebsiella oxytoca isolate secondary sludge #186 (carbapenemase genes (PCR): KPC) | 16 | 32 | 8
13 | Klebsiella oxytoca isolate secondary sludge #188 (carbapenemase genes (PCR): KPC) | 32 | 64 | 8
14 | Klebsiella oxytoca isolate secondary sludge #189 (carbapenemase genes (PCR): KPC) | 16 | 64 | 8
15 | Klebsiella oxytoca isolate secondary sludge #194 (carbapenemase genes (PCR): KPC) | 32 | 64 | 8
16 | Klebsiella oxytoca isolate secondary sludge #195 (carbapenemase genes (PCR): KPC) | 8 | 32 | 8
17 | Klebsiella oxytoca isolate secondary sludge #196 (carbapenemase genes (PCR): KPC) | 8 | 32 | 8
18 | Klebsiella oxytoca isolate secondary sludge #197 (carbapenemase genes (PCR): KPC) | 16 | 64 | 8
19 | Klebsiella oxytoca isolate secondary sludge #198 (carbapenemase genes (PCR): KPC) | 16 | 64 | 8

Row | Test System | MIC [1] [µg/mL] | MIC [2] [µg/mL] | MIC [3] [µg/mL]
20 | Klebsiella oxytoca isolate secondary sludge #199 (carbapenemase genes (PCR): KPC) | 8 | 32 | 8
21 | Klebsiella oxytoca isolate sewage #167 (carbapenemase genes (PCR): KPC) | 64 | 64 | 32
22 | Klebsiella oxytoca isolate sewage #202 (carbapenemase genes (PCR): KPC) | 16 | 64 | 32
23 | Klebsiella oxytoca isolate sewage #203 (carbapenemase genes (PCR): KPC) | 32 | 32 | 32
24 | Klebsiella oxytoca isolate sewage #211 (carbapenemase genes (PCR): KPC) | 64 | 128 | 32
25 | Klebsiella oxytoca isolate sewage #213 (carbapenemase genes (PCR): KPC) | 8 | 64 | 32
26 | Klebsiella pneumoniae isolate primary sludge #11 (carbapenemase genes (PCR): OXA-48) | 128 | 128 | 64
27 | Klebsiella pneumoniae isolate primary sludge #62 (carbapenemase genes (PCR): KPC) | 64 | 128 | 64
28 | Klebsiella pneumoniae isolate primary sludge #71 (carbapenemase genes (PCR): KPC) | 64 | 128 | 32
29 | Klebsiella pneumoniae isolate primary sludge #81 (carbapenemase genes (PCR): KPC) | 32 | 64 | 32
30 | Klebsiella pneumoniae isolate primary sludge #109 (carbapenemase genes (PCR): KPC) | 32 | 64 | 32
31 | Klebsiella pneumoniae isolate primary sludge #157 (carbapenemase genes (PCR): KPC) | 64 | 128 | 32
32 | Klebsiella pneumoniae isolate primary sludge #160 (carbapenemase genes (PCR): KPC) | 16 | 64 | 32
33 | Klebsiella pneumoniae isolate primary sludge #162 (carbapenemase genes (PCR): KPC) | 16 | 16 | 8
34 | Klebsiella pneumoniae isolate primary sludge #196 (carbapenemase genes (PCR): KPC) | 32 | 64 | 32
35 | Klebsiella pneumoniae isolate primary sludge #197 (carbapenemase genes (PCR): KPC) | 16 | 32 | 32
36 | Klebsiella pneumoniae isolate primary sludge #201 (carbapenemase genes (PCR): KPC) | 16 | 32 | 32
37 | Klebsiella pneumoniae isolate primary sludge #202 (carbapenemase genes (PCR): KPC) | 32 | 32 | 32
38 | Klebsiella pneumoniae isolate primary sludge #203 (carbapenemase genes (PCR): KPC) | 64 | 32 | 32

MIC by broth microdilution (CLSI, 0.25-128 µg/mL, 18 h, 37 °C) of Gram-negative wastewater isolates picked on carbapenem-selective plates; higher = less susceptible. No active / inactive call. Isolates were selected for resistance.
